Among all 310,000 compounds or so, about 14,000 (4.5%) showed an effect of 50% or more. The effect is printed as a negative number. This is one part of the list. Where a SMILES comes first, the peptide text is derived from it. [ ]: non-standard residue; d: D form. The star is where a group is joined. Phg = N[CH](C(=O)O)c1ccccc1; Cbz = O=C(OCc1ccccc1)*
target: human ether-à-go-go-related gene (hERG) potassium channel (human, UniProt Q12809); test: primary screen, population patch clamp on CHO cells stably expressing hERG
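Note: peak tail current of the secondary pulse compared with the same well before compound.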

human ether-à-go-go-related gene (hERG) potassium channel, sequence (Q12809 whole entry, looked up): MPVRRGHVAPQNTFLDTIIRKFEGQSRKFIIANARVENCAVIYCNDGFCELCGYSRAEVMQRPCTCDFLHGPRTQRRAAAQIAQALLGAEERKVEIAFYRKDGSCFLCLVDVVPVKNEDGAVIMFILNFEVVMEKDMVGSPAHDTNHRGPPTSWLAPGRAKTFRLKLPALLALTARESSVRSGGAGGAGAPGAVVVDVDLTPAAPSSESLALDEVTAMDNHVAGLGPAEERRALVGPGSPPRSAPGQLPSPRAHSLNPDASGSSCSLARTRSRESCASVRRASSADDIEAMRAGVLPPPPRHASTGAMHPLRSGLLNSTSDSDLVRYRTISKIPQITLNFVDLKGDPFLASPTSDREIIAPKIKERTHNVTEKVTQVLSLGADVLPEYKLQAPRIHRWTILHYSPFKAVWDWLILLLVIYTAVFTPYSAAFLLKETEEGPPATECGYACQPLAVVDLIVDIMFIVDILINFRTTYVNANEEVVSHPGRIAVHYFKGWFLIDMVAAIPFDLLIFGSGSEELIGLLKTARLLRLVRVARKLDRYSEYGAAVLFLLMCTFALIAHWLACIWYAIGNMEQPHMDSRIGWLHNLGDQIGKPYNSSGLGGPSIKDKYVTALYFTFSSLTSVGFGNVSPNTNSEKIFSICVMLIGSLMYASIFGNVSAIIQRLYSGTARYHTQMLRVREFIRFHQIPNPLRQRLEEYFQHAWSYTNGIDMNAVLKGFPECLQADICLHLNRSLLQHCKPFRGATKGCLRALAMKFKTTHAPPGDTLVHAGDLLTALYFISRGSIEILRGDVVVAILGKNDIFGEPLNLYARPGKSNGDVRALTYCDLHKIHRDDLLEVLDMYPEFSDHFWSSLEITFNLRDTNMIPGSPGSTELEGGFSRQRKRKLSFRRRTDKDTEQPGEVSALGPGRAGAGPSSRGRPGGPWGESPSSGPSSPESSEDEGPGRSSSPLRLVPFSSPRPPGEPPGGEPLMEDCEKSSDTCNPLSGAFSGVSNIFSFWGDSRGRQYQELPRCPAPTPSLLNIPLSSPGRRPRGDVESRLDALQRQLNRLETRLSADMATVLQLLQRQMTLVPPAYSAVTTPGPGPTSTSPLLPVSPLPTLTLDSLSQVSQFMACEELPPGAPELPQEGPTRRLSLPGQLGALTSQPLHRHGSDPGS

Going from `O=C(Cc1ccccc1)N1CCN=C1SCc1cccc([N+](=O)[O-])c1` to `O=C(CCc1ccccc1)N1CCN(Cc2ccc(F)cc2Cl)CC1`, the “hERG current change (%, negative = inhibition) at 10uM” value falls from -22.6% to -24.2%.

Compared with `Cc1c(C(=O)OCc2ccccc2)nnn1-c1nonc1N`, `Cc1c(CNCc2cccs2)c(C(=O)O)c(C)n1Cc1ccccc1` is lower in “hERG current change (%, negative = inhibition) at 10uM” value: -2.14% for the first, -31.3% for the second.

First: Nc1ccc(Oc2ncccn2)cc1
Second: Nc1ccccc1SSc1ccccc1N
The “hERG current change (%, negative = inhibition) at 10uM” value of the first is lower: 13.5% for the first, 27.7% for the second.

Going from `O=C(CCCN1C(=O)S/C(=C\C=C\c2ccccc2)C1=O)Nc1ccc(O)cc1` to `O=C(CCCC(=O)Nc1ccccc1Br)N/N=C/c1c(F)cccc1Cl`, the “hERG current change (%, negative = inhibition) at 10uM” value falls from -2.47% to -7.39%.

First: Cc1nc(SCC(=O)NC(=O)NC2CCCCC2)nc(C)c1C
Second: O=C(CNC(=O)[C@@H]1Cc2ccccc2CN1)NC1CCCC1
The “hERG current change (%, negative = inhibition) at 10uM” value of the first is higher: 10% for the first, 7.67% for the second.

Compared with `COCCNC(=S)NN=C1CCCCC1`, `CN(C)C(CNC(=O)CSc1nc2sc3c(c2c(=O)n1C)CCCC3)c1ccccc1` (centres unmarked) is lower in “hERG current change (%, negative = inhibition) at 10uM” value: 0.671% for the first, -16.6% for the second.

Compared with `COc1ccc(CNC(=O)CN2C(=O)COc3ccc(S(=O)(=O)N4CCC(C)CC4)cc32)cc1`, `CC1CCN(S(=O)(=O)c2ccc(NC(=O)[C@@H]3CCCC[C@@H]3C(=O)O)cc2)CC1` is higher in “hERG current change (%, negative = inhibition) at 10uM” value: -9.64% for the first, 9.64% for the second.

First: COC(=O)C(Cc1ccc(O)cc1)NC(=O)C(C)NC(=O)c1ccc(C(C)(C)C)cc1 (centres unmarked)
Second: O=C(N[C@@H](Cc1ccc(O)cc1)C(=O)O)c1ccncc1
The “hERG current change (%, negative = inhibition) at 10uM” value of the first is lower: -12.8% for the first, 17.2% for the second.

Compared with `O=C(O)C(NC(=O)C1CCCN1C(=O)OCc1ccccc1)c1ccccc1` (stereo not drawn) (Cbz-Pro-[Phg]-OH; configuration not given here), `O=C(O)c1ccccc1-c1ccccc1C(=O)NCc1ccco1` is lower in “hERG current change (%, negative = inhibition) at 10uM” value: 17.4% for the first, 13.4% for the second.

Compared with `O=C1C(=O)N(CNc2cccnc2)c2ccccc21`, `O=C(Nc1cccnc1)c1ccccc1-c1nc(-c2ccccc2F)no1` is lower in “hERG current change (%, negative = inhibition) at 10uM” value: 6.87% for the first, -16.4% for the second.

First: O=C(COC(=O)c1cncc(Br)c1)Nc1ccc2c(c1)OCO2
Second: CCC(=O)N(C)CCc1cc2c(c(OC)c1/C=N/NC(=O)c1ccccc1O)OCO2
The “hERG current change (%, negative = inhibition) at 10uM” value of the first is higher: -0.617% for the first, -6.4% for the second.

Going from `O=C(c1ccco1)N1CCN(C(=O)C2CC(=O)N(c3ccc(Cl)cc3)C2)CC1` (centres unmarked) to `O=C(c1ccco1)N1CCN(C(=O)c2nn3cccnc3c2Cl)CC1`, the “hERG current change (%, negative = inhibition) at 10uM” value rises from -75.4% to 18.4%.

First: CC(C)C[C@H]1COCCS(=O)(=O)N1Cc1cccc(F)c1
Second: CCOC(=O)C1(Cc2cccc(F)c2)CCN(C(=O)c2ccoc2C)CC1
The “hERG current change (%, negative = inhibition) at 10uM” value of the first is higher: 4.49% for the first, 2.63% for the second.

First: O=C(CSCCO)Nc1cccc2ccccc12
Second: Cc1cccc(CSCCNC(=O)CN2C(=O)c3ccccc3S2(=O)=O)c1
The “hERG current change (%, negative = inhibition) at 10uM” value of the first is lower: 13.7% for the first, 16.2% for the second.

Going from `Cc1c(C(=O)Nc2ccc3c(c2)CCC3)cccc1[N+](=O)[O-]` to `COc1ccc(Br)cc1C(=O)Nc1cccc(NC(=O)c2ccco2)c1`, the “hERG current change (%, negative = inhibition) at 10uM” value rises from -13% to -8.11%.

Going from `CN(CCC#N)C(=O)COc1ccc(Br)cc1Cl` to `CCCc1cc(=O)oc2cc(OCc3ccc(OC)cc3)c(Cl)cc12`, the “hERG current change (%, negative = inhibition) at 10uM” value rises from 13.8% to 17.2%.

Compared with `Cc1nc2c(c(C)nn2-c2ccccc2)c(C)c1CCC(=O)NCCCOC(C)C`, `COc1cccc(NC(=O)CN(C)C(=O)c2c(C)nn(-c3ccccc3)c2Cl)c1` is higher in “hERG current change (%, negative = inhibition) at 10uM” value: -34.7% for the first, 1.94% for the second.

First: CC(C)(C)C1CCC(OC(=O)C[N+]2(C)CCCC2)CC1.[I-] (centres unmarked)
Second: Nc1c(C(=O)NC2CCCC2)c2nc3ccccc3nc2n1CC1CCCO1 (centres unmarked)
The “hERG current change (%, negative = inhibition) at 10uM” value of the first is higher: 27.1% for the first, -4.67% for the second.

First: COc1ccc(NC(=O)c2cn(CCC#N)nc2-c2cc3ccccc3o2)cc1
Second: COc1ccc(C(=O)NNC(=O)Nc2ccc(C)cc2)cc1
The “hERG current change (%, negative = inhibition) at 10uM” value of the first is higher: -0.308% for the first, -14% for the second.

Compared with `Cc1nn(Cc2ccc(C(=O)Nc3nc4c(C)cccc4s3)o2)c(C)c1Br`, `CCOC(=O)c1sc(NC(=O)Nc2ccc(F)cc2)nc1C` is lower in “hERG current change (%, negative = inhibition) at 10uM” value: 12.5% for the first, 7.39% for the second.

Going from `Cc1cc(C)cc(NC(=O)NCC(O)COc2ccc([N+](=O)[O-])cc2)c1` (centres unmarked) to `Cc1ccc(NC(=O)COC(=O)C(NS(=O)(=O)c2ccc(Cl)cc2)C(C)O)c(Br)c1` (centres unmarked), the “hERG current change (%, negative = inhibition) at 10uM” value rises from -42.3% to -20.1%.

Going from `COC(=O)c1ccc(CN2CCN(CCCc3ccccc3)C(CCO)C2)cc1` (centres unmarked) to `OCCC1CN(CCCc2ccccc2)CCN1CCc1ccccc1` (centres unmarked), the “hERG current change (%, negative = inhibition) at 10uM” value falls from -64.1% to -77.2%.

Going from `CC(C)(C)NC(=O)N1CCC(CO)(Cc2ccccc2Cl)CC1` to `O=C(COC(=O)C1CCN(C(=O)Nc2ccccc2)CC1)NCC(F)(F)F`, the “hERG current change (%, negative = inhibition) at 10uM” value rises from -4.82% to 17.7%.

Compared with `C/C(=N\NC1=NCCN1)c1ccccc1`, `O=C(NCCc1csc(-c2cccnc2)n1)c1ccccc1` is higher in “hERG current change (%, negative = inhibition) at 10uM” value: 1.62% for the first, 12.4% for the second.

Going from `COc1ccccc1N1CCN(C2CC(=O)N(c3cccc(Br)c3)C2=O)CC1` (centres unmarked) to `CCOc1ccccc1N1CCN(Cc2ccco2)CC1`, the “hERG current change (%, negative = inhibition) at 10uM” value rises from -53.7% to -14.9%.

First: C=CCn1c(SCCOC)nc2c1c(=O)[nH]c(=O)n2C
Second: CC(C)CN(C(=O)CSc1nncn1-c1ccccc1)c1c(N)n(CC(C)C)c(=O)[nH]c1=O
The “hERG current change (%, negative = inhibition) at 10uM” value of the first is lower: 2.01% for the first, 6.75% for the second.

Going from `CC1CCCCC12NC(=O)N(CC(=O)N1CCN(C(=O)c3ccco3)CC1)C2=O` (centres unmarked) to `O=C(NC(=S)N1CCN(c2ccc(Cl)cc2[N+](=O)[O-])CC1)c1ccco1`, the “hERG current change (%, negative = inhibition) at 10uM” value falls from -4.27% to -68.4%.

Going from `CCC(C)[C@H](NC(=O)Nc1ccc(S(N)(=O)=O)cc1)C(=O)O` (some centres unmarked) to `CCOC(=O)C1CCN(C(=S)Nc2ccc(S(N)(=O)=O)cc2)CC1`, the “hERG current change (%, negative = inhibition) at 10uM” value falls from 4.65% to -3.4%.

Compared with `CCN(CC)C(=O)c1sc2[nH]c(=S)n(-c3ccccc3)c(=O)c2c1C`, `Cc1nn(-c2ccccc2)c(Cl)c1/C=C1\SC(=S)NC1=O` is higher in “hERG current change (%, negative = inhibition) at 10uM” value: 15.8% for the first, 17.6% for the second.

Compared with `NC(=O)C1CCN(c2nc(-c3ccc4ccccc4c3)cs2)CC1`, `Cc1cccc2cc(C#N)c(SCC(=O)N3CCC(C)CC3)nc12` is lower in “hERG current change (%, negative = inhibition) at 10uM” value: 8.35% for the first, -6.48% for the second.

First: O=C(CN1C(=O)C2C3C=CC(C3)C2C1=O)N1CC(=O)N(CCc2ccccc2)C(=O)C1 (centres unmarked)
Second: COc1ccc(CCN2C(=O)CC(C(C)c3ccccc3)C2=O)cc1OC (centres unmarked)
The “hERG current change (%, negative = inhibition) at 10uM” value of the first is higher: 10.2% for the first, -7.82% for the second.

Going from `O=c1cc(-c2ccc(O)c(-c3c(O)cc(O)c4c(=O)cc(-c5ccc(O)cc5)oc34)c2)oc2cc(O)cc(O)c12` to `Cc1ccc(C2=NN3C(C(=O)c4ccccc4)Oc4ccccc4C3C2)cc1` (centres unmarked), the “hERG current change (%, negative = inhibition) at 10uM” value rises from -7.09% to 0.487%.

First: COC(=O)C[C@H]1c2cc(C(F)(F)F)ccc2S(=O)(=O)N1Cc1ccccc1
Second: Cc1csc(-c2cnn(-c3ccccc3)c2NC(=O)c2ccc(C(F)(F)F)cc2)n1
The “hERG current change (%, negative = inhibition) at 10uM” value of the first is lower: -37% for the first, -15.6% for the second.

Compared with `Cc1ccc(-c2sc(C(=O)NN)c(C)c2C#N)cc1`, `Cn1nc(N)c2c(-c3ccc(Cl)cc3)c(C#N)c(N)nc21` is lower in “hERG current change (%, negative = inhibition) at 10uM” value: 7.27% for the first, -12.3% for the second.

Going from `CS(=O)(=O)NCCOc1ccc(S(=O)(=O)NCCOc2ccccc2)cc1` to `Cc1onc(-c2ccccc2Cl)c1C(=O)Nc1ccc(S(=O)(=O)NCC2CCCO2)cc1` (centres unmarked), the “hERG current change (%, negative = inhibition) at 10uM” value falls from 12.3% to -10.5%.

First: CCCCCCN1C2=NCCN2c2ccccc21.Cl
Second: CCCN(C(=O)c1c(-c2ccccc2)noc1C)c1c(N)n(Cc2ccccc2)c(=O)[nH]c1=O
The “hERG current change (%, negative = inhibition) at 10uM” value of the first is lower: -74% for the first, 1.43% for the second.

Compared with `Cc1ccsc1-c1nc(CSCC(=O)NCCN2CCCC2)c(C)o1`, `O=C(CSC1=NCCS1)N1CCCC1` is higher in “hERG current change (%, negative = inhibition) at 10uM” value: -32% for the first, 15.1% for the second.

First: Cc1ccc(N(CC(=O)Nc2ccc(Br)c(C)c2)S(=O)(=O)c2c(C)[nH]c(=O)[nH]c2=O)cc1
Second: CCCc1nc2nc(C)c(NS(=O)(=O)c3ccc(CC(C)C)cc3)c(=O)n2[nH]1
The “hERG current change (%, negative = inhibition) at 10uM” value of the first is higher: 17.6% for the first, 7.02% for the second.

Compared with `CC1(C)CC2CC(C)(CN2C(=O)COC(=O)c2ccc(Cl)c(N)c2)C1` (centres unmarked), `C/C=C\C=C/C(=O)Nc1cccc(C2=NOC3(C2)C[C@H](C(N)=O)N(C(=O)Cc2ccc([N+](=O)[O-])cc2)C3)c1` (some centres unmarked) is lower in “hERG current change (%, negative = inhibition) at 10uM” value: 3.32% for the first, -1.31% for the second.

First: CCOc1ccc(S(=O)(=O)N2CCCCC2)cc1NC(=O)C1=COCCO1
Second: O=C(Nc1ccc(N2CCOCC2)cc1N1CCOCC1)c1cccc([N+](=O)[O-])c1
The “hERG current change (%, negative = inhibition) at 10uM” value of the first is lower: -13.7% for the first, -5.64% for the second.

Compared with `Cn1cnc(Sc2ncnc3nc[nH]c23)c1[N+](=O)[O-]`, `Cc1cc(-c2ccccc2)n(-c2ccc(C(=O)N3CCN(c4ncccn4)CC3)cc2)n1` is lower in “hERG current change (%, negative = inhibition) at 10uM” value: 17.5% for the first, -56.4% for the second.

Compared with `COc1ccc(CC(=O)O/N=C(\N)Cc2cccc3ccccc23)cc1OC`, `CC(C)(C)c1cc(C(=O)N/N=C/c2ccccc2O)n(-c2ccccc2)n1` is lower in “hERG current change (%, negative = inhibition) at 10uM” value: 8.17% for the first, -3.06% for the second.

Compared with `CCCOC(=O)C[N+](C)(C)CCOC1CC2CCC1(C)C2(C)C.[Br-]` (centres unmarked), `O=C(Nc1nnc(SCc2c(Cl)cccc2Cl)s1)C1CC(=O)N(c2ccc3c(c2)OCCO3)C1` (centres unmarked) is lower in “hERG current change (%, negative = inhibition) at 10uM” value: 13% for the first, 11.3% for the second.
